Reference: PubChem BioAssay AID485364 (National Center for Advancing Translational Sciences (NCATS), 2010)
The campaign covered roughly 360,000 compounds. About 11,000 (3.1%) were called active. Inconclusive results, whose numbers are uncertain, are shown with a selection of clear calls. Calls come from the whole dose curve; as a rule, active = well fitted inhibition curve with a large enough effect; inconclusive = small, poorly fitted or top-dose-only effect; inactive = no such curve, though single readings can be large or run the other way. Potencies of inconclusive entries are left out as doubtful fits.

These compounds were tested against Schistosoma mansoni thioredoxin glutathione reductase (TGR) (UniProt Q962Y6) (assay: qHTS Assay for the Inhibitors of Schistosoma Mansoni Peroxiredoxins). Settings: purified TGR, DTNB reduction, TNB absorbance 405 nm; activity change, negative = inhibition: at 114 µM (top of the series).
In short: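 TGR 20 nM + NADPH 100 uM (dispensed conc.), cpd preinc 15 min RT; start with NADPH (500 uM addition) then DTNB (15 mM addition). Kinetic TNB absorbance, 405 nm filter. Four-parameter Hill fit across titration.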
% is set by controls: 0 for no effect and ±100 for the full control effect; potency is the fitted concentration of half-maximal effect; tags give direction and shape of the fitted curve.
Note: nearly all actives have a fitted effect of over 60% in size.

SMILES	Potency	activity change, negative = inhibition
CCN1CCN(C(c2cccnc2)c2cc(Cl)c3cccnc3c2O)CC1 (configuration not stated)	inconclusive [inhibitor, full curve]	–
CCOc1ccc(/C=C2\SC(=S)NC2=O)cc1OC	–	inactive: -8.26%
CC(=O)Nc1sc(C)c(C)c1CN1CCN(S(=O)(=O)c2ccccc2)CC1	inconclusive [inhibitor, partial curve]	–
CC(=O)N1CCN(S(=O)(=O)c2cccc(C(=O)N(C)Cc3ccc(C)o3)c2)CC1	active: 39.8 µM	–
CCOC(=O)c1c(CCl)nc2ccccc2c1-c1ccccc1	active: 25.1 µM	–
Cc1ccc(NC(=O)N2CCC(CN3CCCCCC3)CC2)c(Cl)c1	inconclusive [inhibitor, partial curve]	–
CCN(CCn1cccn1)C(=O)CC1C(=O)NCCN1Cc1cc(OC)cc(OC)c1 (configuration not stated)	inconclusive [inhibitor, partial curve]	–
CSc1ccc(Cl)c(C(=O)NC2CCCC2)c1	inconclusive [inhibitor, single point]	–
Fc1ccccc1NC(=S)NCc1ccc(Cl)cc1	inconclusive [inhibitor, single point]	–
Cn1nc([N+](=O)[O-])c(C(C#N)c2ccccn2)c(Cl)c1=O (configuration not stated)	active: 4.47 µM	–
Cc1cc(C)cc(S(=O)(=O)c2cnc3ccccc3n2)c1	inconclusive [inhibitor, partial curve]	–
CCN(CC(=O)Nc1c(C(=O)OC)[nH]c2ccccc12)c1ccc2c(c1)OCO2	inconclusive [inhibitor, partial curve]	–
CCCC(=O)Nc1cccc(-c2nc3ncccc3o2)c1	–	inactive: -1.08%
CCC(C)CCCCNC1=NCCS1 (configuration not stated)	inconclusive [inhibitor, single point]	–
CCCOc1ccc(/C(O)=C2/C(=O)C(=O)N(CCCN3CCOCC3)C2c2ccncc2)cc1 (configuration not stated)	active: 11.2 µM	–
O=C(c1cc2nc(-c3ccco3)cc(C(F)(F)F)n2n1)N1CCCCCC1	active: 35.5 µM	–
CNS(=O)(=O)c1ccc2c(c1)NC(=O)C1CCCN21 (configuration not stated)	inconclusive [inhibitor, single point]	–
COc1ccc(CC(=O)OCC(=O)NCc2ccco2)cc1OC	active: 39.8 µM	–
CCOc1cc(C(=O)NC)cc(OCC)c1OCC	inconclusive [inhibitor, full curve]	–
O=C(C1=NNCC1c1ccccc1)C1CO1 (configuration not stated)	inconclusive [inhibitor, partial curve]	–
O=C1C(Cc2ccccc2)Nc2ncnc(N3CCOCC3)c2N1Cc1ccc(Cl)cc1 (configuration not stated)	inconclusive [inhibitor, partial curve]	–
COc1ccc(O)c(CN2CCCC(C(=O)Nc3cccc(-n4cccn4)c3)C2)c1 (configuration not stated)	inconclusive [inhibitor, single point]	–
COc1ccc(C(=O)Nc2nc(C)cc(C)n2)cc1	active: 22.4 µM	–
CC1CCC(NC(=O)c2ccc(CS(=O)(=O)Cc3ccccc3F)o2)CC1 (configuration not stated)	inconclusive [inhibitor, partial curve]	–

SMILES	Potency	activity change, negative = inhibition
Cc1nnc(SCC2=C(C(=O)O)N3C(=O)C(NC(=O)c4cc(F)c(F)cc4Cl)C3SC2)s1 (configuration not stated)	active: 15.8 µM	–
CCCc1cc(=O)oc2c(CNc3ccc(OCC)cc3)c(O)ccc12	inconclusive [inhibitor, partial curve]	–
CCOC(=O)C(NC(=O)Nc1ccc(O)cc1)(c1ccccc1)C(F)(F)F (configuration not stated)	inconclusive [inhibitor, partial curve]	–
Clc1ccc(N=c2ssnc2Cl)cc1	inconclusive [inhibitor, partial curve]	–
Cc1ccc2nc(NC(=S)NC(=O)c3ccco3)sc2c1	inconclusive [inhibitor, partial curve]	–
COc1ccc(-c2nnc(C3CCN(S(=O)(=O)c4ccccc4)CC3)o2)cc1	–	inactive: 6.43%
O=C(NCCC1CCCCN1S(=O)(=O)c1ccc(Cl)cc1)C(=O)NCc1ccco1 (configuration not stated)	inconclusive [inhibitor, partial curve]	–
CCCCN(C)C(=O)c1nc2ccccn2c1CNCCCn1nnc2ccccc21	inconclusive [inhibitor, partial curve]	–
CCCCn1cc(S(=O)(=O)c2ccc(Cl)cc2)c(=O)c2cc(F)c(N3CCCC(C)C3)cc21 (configuration not stated)	–	inactive: -3.97%
O=C(c1ccc([N+](=O)[O-])s1)N1CCN(c2ccccc2)CC1	inconclusive [inhibitor, partial curve]	–
COc1ccc(C(=O)Nc2cc(C(F)(F)F)ccc2Cl)cc1OC	inconclusive [inhibitor, full curve, poor fit]	–
O=C(NCC1CCCO1)c1ccc(CSCc2cccc(F)c2)o1 (configuration not stated)	inconclusive [inhibitor, full curve, poor fit]	–
O=C(Cn1cnc2ccccc2c1=O)N1CCN(S(=O)(=O)c2ccc(F)cc2)CC1	–	inactive: -10.1%
N/N=C1\CCCc2c1[nH]c1ccc([N+](=O)[O-])cc21	inconclusive [inhibitor, partial curve]	–
O=C(N/N=C\c1ccc([N+](=O)[O-])o1)C1COc2ccccc2O1 (configuration not stated)	inconclusive [inhibitor, partial curve]	–
Cc1cccn2c(NCC3CCCO3)c(C(C)C)nc12 (configuration not stated)	inconclusive [inhibitor, single point]	–
CC(C)OC(=O)c1c(NC(=O)c2ccco2)sc2c1CCCC2	inconclusive [inhibitor, partial curve]	–
CCOC(=O)c1ccc(CC(=O)c2ccc(O)c(O)c2O)o1	inconclusive [inhibitor, full curve]	–
N#C/C(=C/c1ccc(-c2ccccc2[N+](=O)[O-])o1)C(N)=O	inconclusive [inhibitor, single point]	–
COc1cc(O)c(C(CCN2CCCC2)c2ccc(N(C)C)cc2)c(OC)c1 (configuration not stated)	inconclusive [inhibitor, partial curve]	–
Cc1csc(NC(=O)C2CC(=O)N(Cc3ccco3)C2)n1 (configuration not stated)	active: 44.7 µM	–
Fc1ccccc1Nc1nc2c(s1)CCc1ccccc1-2	inconclusive [inhibitor, partial curve]	–
CNC(=O)C1CC(=O)N(Cc2ccc3c(c2)OCO3)C(=Nc2ccc(F)cc2)S1 (configuration not stated)	inconclusive [inhibitor, full curve, poor fit]	–
COc1cccc(CN2CCNC(=O)C2CC(=O)N(C)CCc2ccccn2)c1 (configuration not stated)	inconclusive [inhibitor, partial curve]	–

SMILES	Potency	activity change, negative = inhibition
CC(C)C[C@H](N)c1nnc(S(=O)(=O)Cc2cccc(F)c2)o1	inconclusive [inhibitor, full curve, poor fit]	–
CCOC(=O)c1cnc2c(F)ccc(F)c2c1Sc1ccccc1	active: 15.8 µM	–
C=CCSc1nnc(N2C(=O)C(O)=C(C(=O)c3ccco3)C2c2ccc(F)cc2)s1 (configuration not stated)	active: 14.1 µM	–
CCCC1C(=O)N2C(N(C)C)=Nc3ccc(C)cc3N2C1=O (configuration not stated)	inconclusive [inhibitor, partial curve]	–
O=C(Cc1ccc(Cl)cc1)NC(=S)Nc1ccccc1N1CCOCC1	inconclusive [inhibitor, partial curve]	–
COc1ccc2ccc(O)c(CN3CCN(S(=O)(=O)c4cc([N+](=O)[O-])ccc4C)CC3)c2c1	active: 1.58 µM	–
CN1C2=CC=CC=CC2=[N+](C)C12C=CC(=[N+]([O-])[O-])C=C2[N+](=O)[O-] (configuration not stated)	inconclusive [inhibitor, partial curve]	–
CC1(NC(=O)C2CCCCC2)CCS(=O)(=O)C1 (configuration not stated)	–	inactive: 5.66%
COc1cc(C(=O)Nc2ccc(S(=O)(=O)Nc3nccc(C)n3)cc2)c([N+](=O)[O-])cc1OC	–	inactive: 4.26%
Cc1ccc(C(=O)/C=C/c2cn(CC(O)CN3CCCCCC3)c3ccccc23)cc1 (configuration not stated)	inconclusive [inhibitor, partial curve]	–
COc1ccc(NC(=O)CN2CCN(c3ccccc3F)CC2)c(OC)c1	–	inactive: -2.24%
CCOC(=O)c1ccc(NC(=S)NCCCN2CCOCC2)cc1	inconclusive [inhibitor, partial curve, poor fit]	–
CC(NC(=O)/C(C#N)=C/c1ccco1)c1ccccc1 (configuration not stated)	–	inactive: 0.216%
COc1ccc(C(C(=O)NC2CCCC2)N(C(=O)c2ccoc2C)c2ccc(C)c(C)c2)cc1 (configuration not stated)	–	inactive: 1.9%
CCn1c(O)c(N=NC(=O)c2ccc(CSc3nncn3C)cc2)c2ccccc21	–	inactive: 2.88%
CC(=O)c1ccc(NC(=O)c2cc(C3CC3)nc3c2c(C)nn3-c2ccc(C)cc2)cc1	–	inactive: 10.2%
CN(CCC#N)C(=O)COC(=O)c1c2c(nc3ccccc13)/C(=C/c1ccco1)CC2	active: 10 µM	–
Cc1ccc(-c2cc(C(=O)Nc3c(C(=O)c4ccc(C)c(F)c4)oc4ccccc34)no2)cc1	–	inactive: -5.26%
COc1ccccc1N1CCN(C2CC(=O)N(c3cccc(Br)c3)C2=O)CC1 (configuration not stated)	active: 44.7 µM	–
C[C@](N)(Cc1ccc(O)c(O)c1)C(=O)O	active: 22.4 µM	–
CCCOc1ccc(NC2=CC(=O)CC(C)(C)C2)cc1	–	inactive: -11%
O=C(O)c1ccc2c(c1)C1C=CCC1C(c1ccncc1)N2 (configuration not stated)	active: 22.4 µM	–
CCCc1c(C(=O)N/N=C/C(C)=C/c2ccco2)nnn1-c1nonc1N	inconclusive [inhibitor, partial curve]	–
COc1ccccc1S(=O)(=O)Cc1ccc(C(=O)NC2CC2)o1	inconclusive [inhibitor, partial curve]	–
